Reference: ChEMBL document CHEMBL1201862, “PubChem BioAssay data set” (2004)
Values joined by “and” are separate entries in the source; they are usually repeats but may differ in a detail not shown here. Identical values can stand only once.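 Values below derive from 48-hour exposures of cells grown in 96-well plates, with endpoints linearly interpolated between the two concentrations bracketing the appropriate inhibition level. GI50: concentration for 50% inhibition of growth.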 Active and inactive are the calls of the source. No stated cut-off is given here; in the data, active = GI50 up to about 1.1 µM and inactive = higher.

tested on: NCI-H322M; assay: growth of human tumour cells (NCI), 48 h

SMILES | GI50
C=CCn1c(-c2cc(C(C)(C)C)c(O)c(C(C)(C)C)c2)cs/c1=N\C(P(=O)(O)O)P(=O)(O)O | inactive: > 100 µM
O=C(Nc1ccc(N2C(=O)CSC2c2ccccc2O)cc1)c1ccc(N2C(=O)CSC2c2ccccc2O)cc1 (configuration not stated) | inactive: 83.4 µM
CN(C)Cc1cc(/N=N/c2cccc(Cl)c2)ccc1O | inactive: 12.9 µM
CC(C)C(CC(=O)OCC(CO)OC(=O)CC(C(C)C)C(C)C)C(C)C (configuration not stated) | inactive: 14.7 µM
Cc1sc2[nH]c(=O)oc(=O)c2c1C | inactive: > 100 µM
O=C(NNS(=O)(=O)c1ccccc1)c1csc(NC(=S)NC2CCCCC2)n1 | inactive: 32.6 µM
Cc1cc(S(=O)(=O)n2ccnc2O)c(SCCCN(C)C)cc1Cl | inactive: > 100 µM
N=C(N)Nc1ncccc1[N+](=O)[O-] | inactive: > 100 µM
NCCNc1cccc2ccccc12 | inactive: > 100 µM
O=C(CCC/C(CC(=O)c1ccc(Br)cc1)=N\O)Nc1ccccc1 | inactive: > 100 µM
O=C1c2ccccc2C2(O)N(c3ccccc3)C(=S)N(c3ccccc3)C12O (configuration not stated) | inactive: > 100 µM
O=C(NCCCNC(=O)c1ccc2c(O)c(O)ccc2c1)c1ccc2c(O)c(O)ccc2c1 | inactive: 43.1 µM
Cc1cn(C2OC(CO[Si](C)(C)C(C)(C)C)/C(=C\C#N)C2O[Si](C)(C)C(C)(C)C)c(=O)[nH]c1=O (configuration not stated) | inactive: > 100 µM
COc1cc2c(cc1OCCOS(C)(=O)=O)N=C[C@@H]1CCCN1C2=O | inactive: > 100 µM
Nc1nc(=O)[nH][nH]1 | inactive: > 100 µM
C=C1CC2(CC(c3ccccc3Cl)OC(c3ccccc3Cl)C2)OC1=O (configuration not stated) | inactive: 9.71 µM
O=C(/C=C/c1ccccc1)Oc1cccc2cccnc12 | inactive: 13.8 µM
C=CC1(C)/C(=N\O)C(C)(CC)C(=O)N1O (configuration not stated) | inactive: > 100 µM
Cn1c(C(C#N)c2cc(Cl)ncn2)nc2ccccc21 (configuration not stated) | inactive: > 100 µM
O=C(Cc1ccc(Cl)c(Cl)c1)NCCCN1CCN(CCCN2CCCCC2)CC1 | inactive: 16.6 µM
O=C(O)COc1cc(-c2ccccc2)nc2ccc(F)cc12 | inactive: > 100 µM
COc1cc(/C=N\N(C)C)cc(/C=N/N(C)C)c1O | inactive: 26.8 µM
Cc1ccc(NC(=O)C(=O)C(C#N)c2nc(-c3ccc(-c4ccccc4)cc3)cs2)c(C)c1 (configuration not stated) | inactive: > 100 µM

SMILES | GI50
O=C(/C=C/c1ccc(OCc2ccccc2)cc1)NCc1ccc(C(=O)NCCc2ccccc2)cc1 | inactive: > 100 µM
C=CCCC(OCOCCOC)c1cc(C)c(O[Si](C)(C)C(C)(C)C)c(C)c1 (configuration not stated) | inactive: 21.3 µM
O=[N+]([O-])C1(CO)COC2(OC1)c1ccccc1-c1ccccc12 | inactive: > 100 µM
COC(=O)C(=O)C(C(C)=O)C(=O)NCc1ccc(OC)c(OC)c1 (configuration not stated) | inactive: > 100 µM
COc1ccc(P2(=S)Oc3ccccc3-c3ccccc3O2)cc1 | active: 0.55 µM
NC1CCCCC1.O=C(O)C(CP(=O)(O)O)=C(Cl)Cl | inactive: > 100 µM
CC(=O)OC1=CC2=CC[C@H]3[C@@H]4CCC(=O)[C@@]4(C)CC(=O)[C@]3(S)[C@@]2(C)CC1 | inactive: > 100 µM
CS(=O)(=O)c1cc(=O)c2ccccc2s1 | inactive: 16.9 µM
CCOC(=O)c1c(Sc2ccc([N+](=O)[O-])cc2[N+](=O)[O-])nc2c3ccccc3ccn12 | inactive: > 100 µM
O=C(Nc1cccc(O)c1)C(=O)C(C(=O)c1ccccc1F)C1OC(=O)c2ccccc21 (configuration not stated) | inactive: 15.8 µM
O=C(CC(=O)N1N=C(N2c3ccccc3Sc3ccccc32)CC1c1ccccc1)Nc1ccccc1Cl (configuration not stated) | inactive: > 100 µM
CN1C(=O)N(c2nc3ccccc3[nH]2)C(C)(C)C1=O | inactive: > 100 µM
O=C(N/C(=C\c1cccc([N+](=O)[O-])c1)c1nc2cc([N+](=O)[O-])ccc2[nH]1)c1ccccc1 | inactive: 34.2 µM
COc1ccc(C(NS(=O)(=O)c2ccc(C)cc2)c2c(C(CBr)OC)c3ccccc3n2S(=O)(=O)c2ccccc2)cc1OC (configuration not stated) | inactive: > 100 µM
COc1ccc2c(c1)CCCC(Br)C2=O (configuration not stated) | inactive: 16.6 µM
COc1nc2c(c(O)c(C)c(=O)n2OC2OCC(OC(C)=O)C(OC(C)=O)C2OC(C)=O)c(=O)n1C (configuration not stated) | inactive: > 100 µM
COc1ccccc1NC(=O)C1=C(C)NC(C)=C(C(=O)Nc2ccccc2OC)C1c1ccc(C)cc1 | inactive: > 100 µM
NC(=S)N/N=C/c1cn(CCCl)c2ccccc12 | inactive: 63.8 µM
CC(C)CC1N=C(OCc2ccccc2)OC1=O (configuration not stated) | inactive: > 100 µM
COc1cccc(OC)c1/C=C1\OC(=O)c2cccc(OC)c21 | inactive: 23.2 µM
O=C1Nc2ccccc2/C1=C1/Nc2ccccc2/C1=N\OCCOC1OCC(O)C(O)C1O (configuration not stated) | inactive: > 100 µM
O=c1oc2cc(O)ccc2cc1-c1nc2ccccc2o1 | inactive: 34.4 µM
CN(C)CC1CCC(CN(C)C)C1=O (configuration not stated) | inactive: 19.1 µM

SMILES | GI50
CCCC(=O)N[C@@H](Cc1cc(I)c(O)c(I)c1)C(=O)NCCCNCCCCNCCCNC(=O)[C@@H](N)CCCN=C(N)N | inactive: > 100 µM
Nc1ncnc2c1nc(O)n2-c1ccccc1 | inactive: > 100 µM
CC1CC(N)=C(C#N)C1(C#N)C#N (configuration not stated) | inactive: > 100 µM
COc1cccc(Nc2n[nH]c(NS(=O)(=O)c3cc(C)c(Cl)cc3S)n2)c1 | inactive: > 100 µM
N#Cc1c(-c2ccccc2)nc(-c2ccccc2)sc1=S | inactive: > 100 µM
O=C(CCCCCC(=O)N1CC(CCl)c2ccc([N+](=O)[O-])cc21)N1CC(CCl)c2ccc([N+](=O)[O-])cc21 (configuration not stated) | inactive: > 100 µM
COc1ccc(/C=C(/C(=O)O)c2cc(OC)c(OC)c(OC)c2)cc1 | inactive: 75.2 µM
COc1ccc(/C=C2\Sc3nnc(C)n3N=C2c2cc(F)c(Cl)cc2Cl)cc1OC | inactive: 18 µM
CCCCNc1c(CN)cnc2cc(Cl)ccc12 | inactive: 17.1 µM
Cc1cccc2c1Oc1cc(Cl)ccc1C2NC(=O)CCN1CCN(CCO)CC1 (configuration not stated) | inactive: 17.9 µM
NC(Cc1ccccc1)c1nn[nH]n1 (configuration not stated) | inactive: > 100 µM
COc1cc(OC)cc(Oc2nc3c(N)cc(C(F)(F)F)cc3nc2-c2ccccc2)c1 | inactive: > 100 µM
Cc1cc2c(O)nc(N)nc2nc1C | inactive: > 100 µM
CC(=O)OC1CCN(C(=O)c2ccccc2)CC1CC1(c2cc3ccccc3[nH]2)OCCO1 (configuration not stated) | inactive: > 100 µM
CN(C)CCNc1ccc2ncn3c4ccc(O)cc4c(=O)c1c23 | inactive: 1.37 µM
CC1=Nc2ccccc2C1C(Cc1ccccc1N)c1c(C)[nH]c2ccccc12 (configuration not stated) | inactive: 18 µM
C=C(C)[C@@]1(O[Si](C)(C)C)CCCC[C@@H]1CC(Sc1ccccc1)Sc1ccccc1 | inactive: 17.2 µM
CC1OC(c2ccc3c(OCc4ccccc4)cccc3c2O)CC(OCc2ccccc2)[C@H]1OCc1ccccc1 (some centres not stated) | inactive: > 10 µM
COc1cc(-c2nnc3n2NC=C(C(=O)O)S3)cc(OC)c1OC | inactive: > 100 µM
CC1=CC(=O)CC(C)(C)C1/C=C/C(C)=C/C=C/C(C)=C/C=C/C=C(C)/C=C/C=C(C)/C=C/C1C(C)=CC(=O)CC1(C)C (configuration not stated) | inactive: > 100 µM
Cc1cc2c(=O)c3ccc(Cl)cc3[nH]c2c(C(N)=O)c1C | inactive: > 100 µM
CCCCOc1ccc(/C=C/C2=[N+](CCO)CCO2)cc1 | inactive: > 100 µM
CC[S+]([O-])c1c2cc(OC)ccc2nc2ccc(OC)cc12 (configuration not stated) | inactive: 18.4 µM

SMILES | GI50
O=[N+]([O-])C1(C2([N+](=O)[O-])CCCC2)CCCC1 | inactive: > 100 µM
CC(C)(Cc1ccccc1)N1C(=O)N1C(C)(C)Cc1ccccc1 | inactive: > 100 µM
CCC(C)(C)NC1=C(NC(C)=O)C(=O)c2ccccc2C1=O | inactive: > 75 µM
c1ccc2c3c(ccc2c1)-c1[nH]ncc1CCO3 | inactive: 43.7 µM
CC(=O)O[C@H]1C[C@H]2[C@@H]([C@H](OC(C)=O)C[C@@H]3CC4(CC[C@@]32C)OOC2(CCCCC2)OO4)[C@@H]2CC[C@H]([C@H](C)CCC(N)=O)[C@@]12C | inactive: 8.91 µM
O=c1cc(O)cc2n1CCC2 | inactive: > 100 µM
Cc1c(Cl)nc(Cl)nc1Cl | inactive: 2.36 µM
O=C(O)C12C3CCC(O3)C1(C(=O)O)C1CCC2O1 (configuration not stated) | inactive: > 100 µM
CC1=NN(C(=O)CC(=O)Nc2ccc(Cl)cc2)C(=O)C1/N=N\c1ccc(S(=O)(=O)c2ccc(/N=N/C3C(=O)N(C(=O)CC(=O)Nc4ccc(Cl)cc4)N=C3C)cc2)cc1 (configuration not stated) | inactive: > 100 µM
COC1(C)C(=O)N2C1N(C(=O)OCc1ccccc1)CC2(C)C (configuration not stated) | inactive: > 100 µM
CCOC(=O)C(Cl)(NC(=O)NC(Cl)(C(=O)OCC)C(F)(F)F)C(F)(F)F (configuration not stated) | inactive: > 100 µM
O=c1c2ccccc2nc2sc(/N=C/C=C/c3ccccc3)nn12 | inactive: > 100 µM
Cc1ccc(N/N=C2\C3=C(CCC(C)(C)O3)C(=O)c3ccccc32)cc1 | inactive: 17.7 µM
Cc1nc2ccc(S(=O)(=O)NS(=O)(=O)c3ccc(-c4ccccc4)cc3)cc2c(=O)n1NS(=O)(=O)c1ccc(-c2ccccc2)cc1 | inactive: > 100 µM
Cc1n[nH]c(=O)n1-c1cccnc1 | inactive: > 100 µM
COC1(OC)N=C(N)C2(C#N)/C(=N/N(C)C)CC(C)C12C#N (configuration not stated) | inactive: > 100 µM
c1cc(CNC2C3CCC(C3)C2c2c[nH]c3ccccc23)cc(CNC2C3CCC(C3)C2c2c[nH]c3ccccc23)c1 (configuration not stated) | inactive: 1.24 µM and inactive: 1.54 µM
CS(=O)(=O)C(C#N)c1nc2ccccc2nc1Cl (configuration not stated) | inactive: > 100 µM
CC(=O)Oc1cc(OC(C)=O)c2c(=O)c3ccccc3[nH]c2c1 | inactive: 20.5 µM
N#Cc1c(-c2ccc(Cl)cc2)c(-c2ccc(Cl)cc2)nn(CCOC(=O)CCC(=O)O)c1=O | active: 0.897 µM
O=C1/C(=C/c2ccc(Cl)cc2)N=C(c2ccccc2)N1C1Nc2cc3c(cc2S1)NC(N1C(=O)/C(=C/c2ccc(Cl)cc2)N=C1c1ccccc1)S3 (configuration not stated) | inactive: > 100 µM
CC(C)=CCC/C(C)=C/CC/C(C)=C/CSc1ccccc1C(=O)O [SALIRASIB] | inactive: 15.6 µM
COc1cccc(-c2nc(N)c(C#N)c3c2CCS(=O)(=O)c2ccc(C)cc2-3)c1 | inactive: 41.4 µM
